Data published in PubChem BioAssay (NCATS).
The other results are listed elsewhere or left out. Shown are side measurements of this screen, not its main read-out; they come without a call. For some of these results: The list favours compounds with an active or inconclusive main result. Potencies come from curve fits of mixed quality, noted in brackets. Where a SMILES comes first, the peptide text is derived from it. [ ]: non-standard residue; d: D form. The star is where a group is joined. Nva = CCC[C@H](N)C(=O)O; Cbz = O=C(OCc1ccccc1)*

Assays:
[1] = qHTS drug screen for cell cycle checkpoint inhibitors in PARPi-resistant BRCA-mutant ovarian cancer cell lines. (AID 1963452); conditions: PEO1/OlaR viability, CellTiter-Glo luminescence, 96 h
Outline: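 PEO1, PEO4 and PEO1/OlaR ovarian cancer cells, 600 per well, exposed 96 h at 37C to a dilution series. Viability read by CellTiter-Glo luminescence, normalized to DMSO and empty wells; activity summarized as Z-AUC.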

[2] = qHTS for identification of novel therapeutic agents for treatment of microphthalmiaassociated transcription factor (MiT) renal cell carcinoma (RCC) (AID 1963991); conditions: TFE3-RCC viability, CellTiter-Glo, 48 h
Outline: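 UOK109/UOK124/UOK145 (TFE3 fusions, three partners); 500 cells/well; MIPE v4.0, 1912 cpds, 11 conc.; 48 h, 37 C; CellTiter-Glo, 15 min RT; lum. Norm.: DMSO 100%, empty 0%.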

[3] = measured here: PEO1 parental viability
[4] = measured here: UOK124 cell viability
[5] = measured here: UOK145 cell viability
Tags tell the direction and shape of the fitted curve.

SMILES | AC50 [1, 3] | AC50 ([1]; measured here: PEO4 viability) | AC50 [2, 4] | AC50 [2, 5]
O=C(Cc1ccc(-c2ccc(OCCN3CCOCC3)cc2)cn1)NCc1ccccc1 | 38.9 nM [falling, full curve, poor fit] | 43.6 nM [falling, full curve] | 29.6 nM [falling, full curve] | 37.2 nM [falling, full curve]
Cc1nc2cnc3ccc(C#Cc4cccnc4)cc3c2n1-c1ccc(C(C)(C)C#N)cc1 | 1100 nM [falling, full curve] | 549 nM [falling, full curve] | 93.5 nM [falling, full curve, poor fit] | 148 nM [falling, full curve]
NCC1CCN(c2nccc(-c3ccc4ccccc4c3)n2)CC1 | 17400 nM [falling, partial curve] | 6160 nM [falling, partial curve] |  | 
CN[C@H]1CCc2cc(OC)c(OC)c(OC)c2-c2ccc(OC)c(=O)cc21 | 219 nM [falling, full curve] | 174 nM [falling, full curve] | 3.72 nM [falling, full curve] | 1.18 nM [falling, full curve]
O=C(Nc1ncc(-c2cc(C(F)F)nn2-c2c(Cl)cccc2Cl)s1)C1CC1 | 776 nM [falling, full curve] | 1100 nM [falling, full curve] | 526 nM [falling, full curve] | 264 nM [falling, full curve]
N#Cc1c(NC(=O)c2cccc3ccccc23)sc2c1CCCC2 | 155 nM [falling, full curve] | 195 nM [falling, full curve] | 235 nM [falling, full curve] | 332 nM [falling, full curve]
Nc1cc(C(F)(F)F)c(-c2cc(N3CCOCC3)nc(N3CCOCC3)n2)cn1 | 977 nM [falling, full curve] | 1550 nM [falling, full curve] | 1320 nM [falling, full curve] | 418 nM [falling, full curve]
CCC[C@@H](C=O)NC(=O)[C@H](CC(C)C)NC(=O)[C@H](CC(C)C)NC(=O)OCc1ccccc1 (Cbz-Leu-Leu-[Nva]-aldehyde) | 27500 nM [rising, single point] | 490 nM [falling, full curve] | 1480 nM [falling, full curve] | 1870 nM [falling, full curve]
CC(C)(O)c1cc2nc(-c3cnc(N)nc3)nc(N3CCOCC3)c2s1 | 1230 nM [falling, full curve] | 977 nM [falling, full curve] | 264 nM [falling, full curve] | 132 nM [falling, full curve]
Cn1c2ccccc2c2c3c(c4c5ccccc5n(CCC#N)c4c21)CNC3=O | 9770 nM [falling, partial curve] | 5490 nM [falling, full curve] | 11800 nM [falling, partial curve] | 5900 nM [falling, partial curve]
Cc1ccc(C(=O)N(CCCN)[C@@H](c2oc3cc(Cl)ccc3c(=O)c2Cc2ccccc2)C(C)C)cc1 | 871 nM [falling, partial curve, poor fit] | 15500 nM [falling, partial curve, poor fit] | 6620 nM [falling, full curve] | 29600 nM [falling, partial curve, poor fit]
CN1CC[C@@H](c2c(O)cc(O)c3c(=O)cc(-c4ccccc4Cl)oc23)[C@@H](O)C1 | 490 nM [falling, full curve] | 490 nM [falling, full curve] | 132 nM [falling, full curve] | 66.2 nM [falling, full curve]
CCN1CCN(CC(=O)Nc2ccc(-c3cccc4c(=O)cc(N5CCOCC5)oc34)c3sc4ccccc4c23)CC1 | 2130 nM [falling, full curve] | 3010 nM [falling, partial curve] | 4690 nM [falling, full curve] | 1480 nM [falling, partial curve]
COc1cc([C@@H]2c3cc4c(cc3[C@H](O)[C@H]3COC(=O)[C@@H]23)OCO4)cc(OC)c1OC | 549 nM [falling, full curve] | 309 nM [falling, full curve] | 166 nM [falling, full curve] | 93.5 nM [falling, full curve]
CCOc1ccc(Nc2nc(-c3c(C)nc4ccccn34)cs2)cc1 | 54.9 nM [falling, full curve, poor fit] | 7760 nM [falling, partial curve] | 9.35 nM [falling, full curve] | 2.35 nM [falling, full curve, poor fit]
COc1ccc(-c2cc3c(C)nc(N)nc3n(C3CCC(OCCO)CC3)c2=O)cn1 (stereo unspecified) | 776 nM [falling, full curve] | 436 nM [falling, full curve] | 118 nM [falling, full curve] | 52.6 nM [falling, full curve]
C[C@@H](Oc1cc(-n2cnc3ccc(CN4CCN(C)CC4)cc32)sc1C(N)=O)c1ccccc1C(F)(F)F | 13.8 nM [falling, full curve, poor fit] | 15.5 nM [falling, full curve] | 4180 nM [falling, partial curve] | 2640 nM [falling, full curve]
Cn1cc(CNCC2CCN(c3ncc(C(=O)NO)cn3)CC2)c2ccccc21 | 245 nM [falling, full curve] | 195 nM [falling, full curve] | 148 nM [falling, full curve] | 662 nM [falling, full curve]
CCC[C@H](Nc1nc(-c2ccc(NC(=O)NCC)c(OC)c2)ncc1C)c1cccnc1 | 9.8 nM [falling, full curve] | 9.8 nM [falling, full curve] | 5.9 nM [falling, full curve] | 37.2 nM [falling, full curve]
COC[C@H](NC(=O)c1cnc(C)s1)C(=O)N[C@@H](COC)C(=O)N[C@@H](Cc1ccccc1)C(=O)[C@@]1(C)CO1 | 61.6 nM [falling, full curve] | 27.5 nM [falling, full curve] | 5260 nM [falling, partial curve] | 187 nM [falling, full curve]
Oc1cccc(-c2nc(N3CCOCC3)c3oc4ncccc4c3n2)c1 | 110 nM [falling, full curve, poor fit] | 174 nM [falling, partial curve, poor fit] | 540 nM [falling, full curve] | 1080 nM [falling, full curve]
Cc1ccc(C(=O)N(CCCN)[C@@H](c2nc3cc(Cl)ccc3c(=O)n2Cc2ccccc2)C(C)C)cc1 | 8.7 nM [falling, full curve] | 6.2 nM [falling, full curve] | 16600 nM [falling, partial curve] | 66.2 nM [falling, partial curve, poor fit]
C=CC(=O)Nc1cc2c(Nc3ccc(F)c(Cl)c3)ncnc2cc1C#CC(C)(C)N1CCN(C)CC1 | 2450 nM [falling, full curve] | 3090 nM [falling, full curve] | 2640 nM [falling, full curve] | 3720 nM [falling, full curve]
CC(C)C[C@H](NC(=O)[C@H](CCc1ccccc1)NC(=O)CN1CCOCC1)C(=O)N[C@@H](Cc1ccccc1)C(=O)N[C@@H](CC(C)C)C(=O)[C@@]1(C)CO1 | 8.7 nM [falling, full curve] | 8.7 nM [falling, full curve] | 209 nM [falling, full curve] | 66.2 nM [falling, full curve]
CC(C)c1nn(-c2c(Cl)cccc2Cl)c2nc(Cc3ccc(OCCO)cc3)[nH]c(=O)c12 | 17.4 nM [falling, full curve] | 77.6 nM [falling, full curve] | 74.3 nM [falling, full curve] | 74.3 nM [falling, full curve]
COc1ccc(-c2ccc3ncc4c(c3c2)n(-c2ccc(N3CCNCC3)c(C(F)(F)F)c2)c(=O)n4C)cn1 | 27.5 nM [falling, full curve] | 17.4 nM [falling, full curve] | 743 nM [falling, full curve] | 2960 nM [falling, partial curve]
CNC(=O)Nc1ccc(-c2nc(N3CC4CCC(C3)O4)c3cnn(C4CCC5(CC4)OCCO5)c3n2)cc1 | 871 nM [falling, partial curve] | 1380 nM [falling, partial curve] | 16.6 nM [falling, full curve] | 18.7 nM [falling, full curve]
